Experimental data published in PMC4336329 (PLoS ONE, 2015).
The campaign covered roughly 310,000 compounds. About 14,000 (4.5%) showed an effect of 50% or more. The effect is printed as a negative number. The list shows a part of the results.

biological target: human ether-à-go-go-related gene (hERG) potassium channel (human, UniProt Q12809); assay: primary screen, population patch clamp on CHO cells stably expressing hERG
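Note: peak tail current of the secondary pulse compared with the same well before compound.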

Chain of human ether-à-go-go-related gene (hERG) potassium channel (Q12809 whole entry, looked up): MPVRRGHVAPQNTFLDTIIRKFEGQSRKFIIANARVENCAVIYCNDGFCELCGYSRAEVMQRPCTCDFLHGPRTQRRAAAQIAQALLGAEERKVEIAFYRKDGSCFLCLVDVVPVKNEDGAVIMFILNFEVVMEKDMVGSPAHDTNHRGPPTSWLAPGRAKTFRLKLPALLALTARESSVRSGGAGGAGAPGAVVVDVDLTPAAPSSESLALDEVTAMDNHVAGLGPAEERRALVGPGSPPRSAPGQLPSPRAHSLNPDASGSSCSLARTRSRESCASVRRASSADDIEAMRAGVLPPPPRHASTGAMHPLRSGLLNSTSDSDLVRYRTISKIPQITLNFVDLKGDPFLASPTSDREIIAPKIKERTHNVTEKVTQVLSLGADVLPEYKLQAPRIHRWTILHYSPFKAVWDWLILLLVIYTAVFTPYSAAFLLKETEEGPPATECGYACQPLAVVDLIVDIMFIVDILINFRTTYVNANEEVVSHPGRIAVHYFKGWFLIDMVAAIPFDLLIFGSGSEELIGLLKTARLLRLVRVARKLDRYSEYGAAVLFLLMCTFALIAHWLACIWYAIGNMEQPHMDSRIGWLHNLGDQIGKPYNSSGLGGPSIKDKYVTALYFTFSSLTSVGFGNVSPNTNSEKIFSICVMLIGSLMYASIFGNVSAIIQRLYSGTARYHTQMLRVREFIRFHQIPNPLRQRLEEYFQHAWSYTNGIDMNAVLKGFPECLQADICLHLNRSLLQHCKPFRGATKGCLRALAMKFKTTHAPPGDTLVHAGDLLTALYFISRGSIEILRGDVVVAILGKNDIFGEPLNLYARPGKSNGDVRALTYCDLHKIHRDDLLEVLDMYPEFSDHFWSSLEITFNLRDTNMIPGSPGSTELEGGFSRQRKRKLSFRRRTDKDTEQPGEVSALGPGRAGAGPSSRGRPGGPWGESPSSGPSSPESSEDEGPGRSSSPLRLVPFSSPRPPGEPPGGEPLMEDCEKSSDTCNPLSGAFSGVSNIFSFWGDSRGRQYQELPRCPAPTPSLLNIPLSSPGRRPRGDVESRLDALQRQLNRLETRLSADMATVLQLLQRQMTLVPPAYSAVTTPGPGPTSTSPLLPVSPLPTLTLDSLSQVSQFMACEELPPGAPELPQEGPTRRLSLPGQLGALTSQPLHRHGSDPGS

| SMILES | hERG current change (%, negative = inhibition) at 10uM [%] |
| --- | --- |
| Cc1ccc(C(=O)/C=C/Nc2ccc([N+](=O)[O-])cc2Br)cc1 | -3.83 |
| COc1ccc(C2CC(=O)OC3=C2C(=O)CC(C)(C)C3)c(OC)c1 (centres unmarked) | -1.81 |
| COc1ccc(CCNC(=O)C(=O)NCc2ccc(C(C)C)cc2)cc1OC | 7.86 |
| O=C(CCSCCc1ccccn1)Nc1ccccn1 | 20 |
| O=C(NC(=S)N1CCN(c2nc(-c3ccccc3)cs2)CC1)c1cncc(Br)c1 | 17 |
| O=C(O)CC(NNC(=O)c1ccccc1)C(=O)Nc1ccc([N+](=O)[O-])cc1 (centres unmarked) | 1.38 |
| O=C(Cn1c(-c2ccccn2)nc2ccccc21)N/N=C/c1ccccn1 | -15.8 |
| O=C(O)/C=C/c1cnc[nH]1 | 20.4 |
| Cc1cc(C)c(C(=O)CN2C(=O)NC3(CCC(C)CC3)C2=O)cc1C (centres unmarked) | 11.1 |
| COCCn1cnc2c1c(=O)n(CC(=O)OCC(=O)NCCCc1ccccc1)c(=O)n2Cc1ccccc1 | -57.9 |
| COCCCn1c(C(=O)N2CC(C)OC(C)C2)cc2c(=O)n3cccc(C)c3nc21 (centres unmarked) | 0.735 |
| CCc1nnc(NS(=O)(=O)c2ccc(NC(=O)/C=C/C(=O)O)cc2)s1 | 26.5 |
| O=c1[nH]c(=O)n(Cc2ccc(F)cc2)c(O)c1C=NCCCO | -3.23 |
| CC(NC(=O)CN(C)Cc1cccs1)c1ccccc1 (centres unmarked) | -8.15 |
| COc1ccc(-c2ccc(SCC(=O)N3CCN(c4ccccc4)CC3)nn2)cc1 | 11.8 |
| Cc1ccc(/C=C/C(=O)N2CCN(c3ccc(F)cc3)CC2)o1 | -15.8 |
| CC(C)(C)C(=O)NCc1ccc(C(=O)CSc2nnc(C3CC3)n2C2CC2)s1 | 6.81 |
| Cc1ccc(C(=O)NCC(=O)NCC(=O)OCc2ccc(Oc3ccc([N+](=O)[O-])cc3)cc2)cc1 | -0.732 |
| Cc1cc(NC(=O)C(=O)c2c(C)[nH]c3ccccc23)no1 | 1.67 |
| CN(C(=O)c1ccccn1)C1(C(=O)NC2CCCCC2)CCCCC1 | 7.01 |
| CSc1nc(C)cc(Oc2ccccc2)n1 | -7.34 |
| CCC(C)[C@H](NC(=O)C1CC(=O)N(c2ccc(OC)cc2)C1)C(=O)NC1CCCC1 (some centres unmarked) | 15.2 |
| Cc1ccc(C)c(CN2CCC(CNC(=O)Nc3ccc(Br)cc3F)CC2)c1 | -73.4 |

| SMILES | hERG current change (%, negative = inhibition) at 10uM [%] |
| --- | --- |
| CC(Sc1nc(N(C)C)nc(N2CCOCC2)n1)C(=O)Nc1ccccc1 (centres unmarked) | 13.3 |
| Cc1cc(C)n(Cc2ccc(C(=O)O)o2)n1 | 11.5 |
| Clc1ccc(N=c2ssnc2Cl)nc1 | 11.5 |
| COC(=O)c1c(NC(=O)CN2CCN(C(=O)c3ccco3)CC2)c2c(C)cccc2n1C | -7.25 |
| O=C(c1ccc(F)cc1)c1cn[nH]c1-c1ccccc1O | 3.1 |
| COc1cccc(NC(=O)CN(C)C(C)C(=O)Nc2ccc(C(C)=O)cc2)c1 (centres unmarked) | -22.9 |
| CC12CN3CC(C)(CN(C1)C3c1cccs1)C2=O (centres unmarked) | 13.7 |
| COC(=O)c1sccc1NC(=O)CSc1ccccc1NS(=O)(=O)c1cc(Cl)ccc1Cl | 12.3 |
| O=C(NC1CC1)[C@@H]1CSC2c3ccccc3C(=O)N21 (some centres unmarked) | -6.1 |
| O=C1CCCC/C1=C\Nc1ccc(S(=O)(=O)Nc2cnc3ccccc3n2)cc1 | -12 |
| CCC(C)(C)NC(=O)C(c1ccccc1F)N(Cc1ccco1)C(=O)Cn1nnc2ccccc21 (centres unmarked) | -11.2 |
| Cc1ccc(NS(=O)(=O)c2ccc3c(c2)N(C)CCO3)cc1 | -7.41 |
| C=CCNC(=O)C1CC(=O)N(c2ccc(OCC(=O)Nc3ccc(OC)cc3)cc2)C1 (centres unmarked) | -3.5 |
| CC(=O)Nc1cc(-c2nn(C)c(=O)c3ccccc23)ccc1N1CCOCC1 | 28.2 |
| Cc1cc(C)c(C(=O)c2ccc(C(=O)N(C(C)C)C(C)C)cc2)c(C)c1 | -24.2 |
| Cc1nnc(-c2ccccc2)o1 | 18.7 |
| Cc1ccc(OCCSC2=NN2c2cc(C)nc(N)n2)cc1 | -15.1 |
| CCOC(=O)C1(Cc2ccccc2C)CCCN(S(C)(=O)=O)C1 (centres unmarked) | 16.5 |
| CCCCCCC1CC(CCc2nc(=S)[nH][nH]2)C(=O)O1 (centres unmarked) | 10.9 |
| COC(=O)c1ccccc1NC(=S)NC(=O)C1CCCCC1 | -3.24 |
| CCN1CCN(CC(=O)Nc2cc(C)c(C)cc2[N+](=O)[O-])CC1 | -25.7 |
| COc1ccc(S(=O)(=O)N2CCC(C(=O)N3CCOCC3)CC2)cc1Cl | 3.74 |
| Cc1ccc(C(=O)c2ccccc2C(=O)O)c(O)c1 | 1.4 |

| SMILES | hERG current change (%, negative = inhibition) at 10uM [%] |
| --- | --- |
| N#Cc1ccc(C2=CC(=O)C[C@H](c3ccc4c(c3)OCO4)C2)cc1 | -70 |
| Cc1ccsc1C(=O)N1CCc2ccccc2C1 | 1.54 |
| CC(C)(C)NC(=O)NC(=O)COC(=O)CNC(=O)C1CCCCC1 | 6.73 |
| Cc1cccc(-c2nc(C#N)c(N3CCC(C)CC3)o2)c1 | 15.6 |
| CCOC(=O)c1ccccc1NC(=O)COC(=O)CCC(=O)c1ccc(C)cc1 | 2.2 |
| C[C@@H]1CC=C[C@H]2[C@H]1C(=O)N(Cc1ccccc1)[C@H]2c1ccc(-c2ccc(F)cc2)cc1F | -0.198 |
| Nc1cccc2cnccc12 | 17.5 |
| CC(C)CC(NC(=O)C1CCC(C)CC1)C(=O)NCCN1CCOCC1 (centres unmarked) | 14.5 |
| CN=CC1=C(O)c2ccccc2C1=O | 14.7 |
| Clc1cccc2sc(N3CCN(c4ccccc4)CC3)nc12 | 6.53 |
| Cc1ccc(NC(NC(=O)c2cccs2)C(Cl)(Cl)Cl)cc1 (centres unmarked) | 17.2 |
| CSc1ccc(C(=O)NC2CCSc3ccccc32)cc1 (centres unmarked) | 14.4 |
| Cc1cccc(C(=O)c2cn[nH]c2-c2ccc(C)cc2O)c1 | 17.7 |
| Cc1ccc(S(=O)(=O)c2cc(OC(=O)c3ccco3)ccc2OC(=O)c2ccco2)cc1 | -3.98 |
| Cc1cccc(Oc2coc3cc(OC(=O)c4cccs4)ccc3c2=O)c1 | 6.35 |
| COCC(C)NC(=O)C1CC(c2cccc(Br)c2)=NO1 (centres unmarked) | 17.9 |
| Cc1ccc(NC(=O)CN(C)C2CCCCC2)cc1Cl.O=C(O)C(=O)O | -7.7 |
| Cc1noc(NC(=O)c2c(-c3c(Cl)cccc3Cl)noc2C)c1[N+](=O)[O-] | 2.58 |
| CS(=O)(=O)N1CCN(c2ccnc3cc(Cl)ccc23)CC1 | -78.6 |
| COc1ccc(OC)c(-c2csc(NC(=O)CSc3nnnn3C)n2)c1 | 4.17 |
| C/C(=N\O)C(C)(C)Nc1ccc(F)cc1 | 10.3 |
| Cc1ncc([N+](=O)[O-])n1CC(=O)Nc1cccc(C(F)(F)F)c1 | 5.92 |
| Cc1ccc2nc(C3CCN(C(=O)NCc4ccccc4)CC3)[nH]c2c1 | -30 |

| SMILES | hERG current change (%, negative = inhibition) at 10uM [%] |
| --- | --- |
| COC(=O)C1NN=C(C(=O)c2ccccc2)C1c1ccccc1 (centres unmarked) | 6.71 |
| CCSc1cnn(-c2ccccc2)c(=O)c1Cl | 6.67 |
| CC(Cc1ccccc1)NC(=O)NC(C)Cc1ccccc1 (centres unmarked) | 7.17 |
| CNC(=O)CSc1nc(SC)ns1 | 12.2 |
| CN1C(=O)/C(=C/c2cccc([N+](=O)[O-])c2)C(=O)N1c1ccccc1 | 15 |
| NS(=O)(=O)c1ccc2nc(NC(=O)CS(=O)(=O)c3ccc(F)cc3)sc2c1 | 22.4 |
| C=CCNC(=O)c1ccc(Sc2ccccc2)c([N+](=O)[O-])c1 | 6.15 |
| Cc1cc(N/N=C/c2ccccc2)nc(NCc2ccccc2)n1 | -2.93 |
| CCN1/C(=C/c2cc[n+](CCCS(=O)(=O)[O-])c3ccccc23)Sc2ccccc21 | 12.1 |
| Nn1c(=S)[nH]c2sc3c(c2c1=O)CCCC3 | 20.4 |
| CCOC(=O)N/N=C/c1c(F)c(F)c(F)c(F)c1F | 11.8 |
| CSc1nc2ccc(S(=O)(=O)N3CCCCC3)cc2s1 | 4.83 |
| O=C(CSc1nc2ccccc2[nH]1)NCc1ccccc1 | -1.37 |
| O=C(Cc1ccccc1)N/N=C/c1cccnc1 | 20.3 |
| COc1ccc(CC2(CO)CCN(Cc3cc4ccccc4o3)CC2)cc1 | -52.2 |
| COc1ccc2[nH]c(=O)c(C(=O)O)cc2c1 | 23.8 |
| COc1ccc2nc(/C=N/NC(=O)[C@@H]3CCCN3C(=O)OC(C)(C)C)ccc2c1 | -7.92 |
| Cc1cc(=O)[nH]c2c1c(C)nn2C1CCCC1 | 3.69 |
| CCc1ccc(CN(C)CC(=O)Nc2ccc(S(=O)(=O)N3CCOCC3)cc2)cc1 | -34.6 |
| N#C/C(=C\c1c(N(Cc2ccccc2)Cc2ccccc2)nc2ccccn2c1=O)C(N)=O | -37.5 |
| O=C(O)Cn1cnc2scc(-c3cccs3)c2c1=O | -1.57 |
| COc1ccc(C(=O)OCC(=O)NCCN2C(=O)CSC2=O)cc1 | -1.03 |
| O=C(c1cccs1)N1CCN(c2ccc(Cl)cc2)CC1 | -13.4 |
